Values quoted from earlier work in patent publication US11992011B2, “Compounds for controlling plant pathogens” (VIB VZW, priority 2017, dated 2024).

System: Arabidopsis thaliana seedlings
Conditions: continuous exposure to 10 μM; five day old seedlings; Van de Wouwer et al., 2016; cited from earlier work

O=C(O)c1ccc(I)cc1 [Formula 4-IBA, 4-iodobenzoic acid]
increase of the number of non-lignified endodermal cells in the Casparian strip region: 57%
